PubChem BioAssay AID488969 (Vanderbilt High Throughput Screening Facility, 2010)
The full ranking holds about 110,000 compounds; the median of “z-score” is about -0.1, and the highest 2% start at about 2. This is one part of the list.

Each compound was assayed against Metabotropic glutamate receptor 8 (Rattus norvegicus) (UniProt P70579) (assay: mGluR8 Gi/Go-coupled signaling modulation – cell-based, rat, thallium flux, HTS, primary screen (AID 488969)). Conditions: HEK293 rat mGluR8, GIRK (G protein-gated inwardly rectifying potassium channel) thallium flux, FluoZin2; at 10 µM; stronger effect = higher value; submaximal glutamate (EC20) added with thallium.
Chain of UniProt P70579 (P70579 whole entry, looked up): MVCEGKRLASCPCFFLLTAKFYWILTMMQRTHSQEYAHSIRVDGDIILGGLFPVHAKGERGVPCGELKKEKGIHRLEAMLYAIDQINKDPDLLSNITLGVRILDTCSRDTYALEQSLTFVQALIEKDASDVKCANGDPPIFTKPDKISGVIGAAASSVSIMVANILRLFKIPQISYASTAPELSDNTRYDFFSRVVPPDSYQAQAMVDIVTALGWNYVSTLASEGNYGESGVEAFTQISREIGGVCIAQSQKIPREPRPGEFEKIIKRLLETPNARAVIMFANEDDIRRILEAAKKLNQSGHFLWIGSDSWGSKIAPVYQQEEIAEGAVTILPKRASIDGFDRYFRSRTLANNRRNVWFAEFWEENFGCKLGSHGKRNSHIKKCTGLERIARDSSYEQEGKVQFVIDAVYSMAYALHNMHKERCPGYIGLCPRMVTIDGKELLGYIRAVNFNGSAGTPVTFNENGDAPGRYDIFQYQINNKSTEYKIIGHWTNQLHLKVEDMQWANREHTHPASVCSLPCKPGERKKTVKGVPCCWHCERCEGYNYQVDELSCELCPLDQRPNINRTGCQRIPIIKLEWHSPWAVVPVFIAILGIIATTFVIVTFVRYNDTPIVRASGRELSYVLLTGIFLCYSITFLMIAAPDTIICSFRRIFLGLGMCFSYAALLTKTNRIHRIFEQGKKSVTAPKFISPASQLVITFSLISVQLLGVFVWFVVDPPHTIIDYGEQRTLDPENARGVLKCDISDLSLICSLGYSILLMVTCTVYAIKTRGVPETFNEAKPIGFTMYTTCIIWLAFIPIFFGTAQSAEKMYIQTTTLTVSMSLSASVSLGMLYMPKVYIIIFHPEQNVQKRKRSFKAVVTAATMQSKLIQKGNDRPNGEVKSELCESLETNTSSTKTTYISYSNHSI
CCOC(=O)c1ccc(Oc2nc(NC)nc(Nc3ccccc3)n2)cc1 showed a z-score of -0.255. Work on CC(C)(C)NS(=O)(=O)CC12CCC(CC1=O)C2(C)C (stereo not drawn) yielded a z-score of -0.31. O=C(CSc1nnc(SCc2ccccc2)s1)N/N=C/C=C/c1ccccc1[N+](=O)[O-] showed a z-score of -0.139. Work on Cn1c(SCC(=O)N=Nc2c(O)[nH]c3ccccc23)nc2ccccc21 yielded a z-score of -0.917. Work on O=C(NCc1ccco1)c1cc(-c2ccccc2)on1 yielded a z-score of 0.425. O=C(Nc1ccccc1-c1ccccc1)C(c1ccccc1)c1ccccc1 gave a z-score of -0.166. Compound CCN(CC)C(=O)CSc1nnc(-c2ccncc2)n1N has a z-score of 0.408. For N/C(Cc1cccs1)=N\OC(=O)COc1ccccc1Cl, the z-score was -2.93. For CCN(CC)S(=O)(=O)c1ccc(C(=O)OCC(=O)Nc2sc3c(c2C#N)CCCCC3)cc1, the z-score was -0.159. CCCOc1ccc(C2NC(=O)NC(c3ccccc3)=C2C(C)=O)cc1OCC (stereo not drawn) showed a z-score of -0.631. For CC1CCCN(C(=O)N2c3ccccc3Sc3ccccc32)C1 (stereo not drawn), the z-score was -0.291. In the case of O=C(Nc1ccncc1)c1ccccc1F, the z-score was 0.631. In the case of CCSc1nc2c(c(=O)n1-c1ccc(F)cc1)SCC2, the z-score was -0.944. CN(C)c1ccc(C(=O)Nc2nc3c(s2)CCCC3)cc1 was tested, and the z-score was 0.874. Compound COc1ccccc1NC(=S)N1CCOCC1 has a z-score of -0.186. Compound O=C(Cc1nc2ccccc2[nH]1)N/N=C/c1ccccc1 has a z-score of -0.00943. In the case of COc1ccc(-c2c(NC(C)=O)n(C)c3ccccc3c2=O)cc1, the z-score was -0.198. For CCOC(=O)N1CCC(NC(=O)c2ccc(NC(=O)C3CCCO3)cc2)CC1 (stereo not drawn), the z-score was 0.0351. With O=C(NCc1ccccc1)c1cc(-c2ccco2)on1 the z-score was -0.269. Work on Cc1ccc(SCC(=O)NCCSCc2ccccc2)cc1 yielded a z-score of -0.401. With CCOc1ccc(/C=C2\SC(N3CCc4ccccc4C3)=NC2=O)cc1 the z-score was -0.1. COc1ccc(C(C)N2CC34C=CC(O3)C(C(=O)O)C4C2=O)cc1 (stereo not drawn) showed a z-score of 0.302. In the case of COc1ccc(N2C(=O)CN=C2Nc2nc(C)cc(C)n2)cc1, the z-score was 0.953. Work on Cc1ccc(NC(=O)c2cc(-c3ccco3)on2)cc1C yielded a z-score of 0.266. With Cc1ccc(Nc2cc(C)nc(-c3ccccc3O)n2)cc1 the z-score was -1.47. Compound COC(=O)c1c(NC(=O)C2SC(=NC3CCCCC3)C(C(N)=O)=C2N)sc2c1CCCC2 (stereo not drawn) has a z-score of 0.402. In the case of CC(C)(C)c1ccc2c(c1)C(=O)c1ccccc1C2=O, the z-score was -0.283. With Cc1csc(NC(=O)Nc2cccc(Cl)c2)n1 the z-score was 0.398. Work on O=C(CC(=O)Nc1ccc(Cl)c(Cl)c1)N/N=C/c1ccc(O)cc1 yielded a z-score of -0.913. With O=C1c2ccccc2-c2nc3ccccc3n21 the z-score was -1.14. COc1ccc(CCNC(=O)c2n[nH]c(=O)c3ccccc23)cc1 was tested, and the z-score was 0.669. For Cc1cc(C)cc(NC(=O)CN(C)S(=O)(=O)c2cccc3nsnc23)c1, the z-score was -0.384. In the case of CC(C(=O)Nc1ccc(F)c(F)c1F)N1CCCCCC1 (stereo not drawn), the z-score was 1.62. With CCOc1ccc(-c2nn3c(-c4ccc(F)cc4)nnc3s2)cc1 the z-score was -0.355. Compound Cc1sc2ncn(C(C)C(=O)OC3CCCCC3)c(=O)c2c1C (stereo not drawn) has a z-score of -0.264. c1ccc(COc2cccc(CNn3cnnc3)c2)cc1 was tested, and the z-score was -0.177. For COc1cc2c(cc1OC)C(C(=O)Nc1cccc(C)n1)C(c1cccnc1)N(C)C2=O (stereo not drawn), the z-score was 1.39. COc1ccc(CNC(=O)C2CCC(CNS(=O)(=O)c3cccc4nsnc34)CC2)cc1 (stereo not drawn) showed a z-score of -0.00856. Cc1cc(C)n(-c2nc3ccccc3c(=O)n2OCC(N)=O)n1 was tested, and the z-score was -0.254. In the case of COc1ccc(C(=O)N2CCC(O)(c3ccc(F)cc3)CC2)cc1OC, the z-score was -0.0981. O=C(Cc1ccsc1-c1ccccc1)NO gave a z-score of -0.296. In the case of CCOC(=O)c1ccccc1-c1csc(NS(=O)(=O)c2ccc(Cl)cc2)n1, the z-score was -0.194. Work on CS(=O)(=O)N1CCCC(C(=O)NCc2cccs2)C1 (stereo not drawn) yielded a z-score of 0.48. With NC(=O)CC1SC(N)=NC1=O (stereo not drawn) the z-score was -0.141. O=C(CC(C(=O)N1CCc2ccccc21)n1ccnc1)NCc1cccnc1 (stereo not drawn) was tested, and the z-score was 0.267. Compound CCc1c(C)nc2[nH]nc(NC(=O)C(F)(F)F)n2c1=O has a z-score of 0.07. CCOC(=O)c1ccc(NC(=O)COc2cc(=O)n(CC)c3ccccc23)cc1 gave a z-score of 0.467. Work on COc1ccc(OC)c(C(=O)c2ccc(C(=O)Nc3ccccc3)cc2)c1 yielded a z-score of -0.73. CCOC(=O)c1ccc(NC(=O)CNC(=O)c2ccccc2)cc1 was tested, and the z-score was -0.148. COc1ccc(NC(=O)CSc2ccc3ccccc3c2)cc1S(=O)(=O)N1CCCCC1 showed a z-score of -0.097. In the case of COc1ccc(C(=O)CN(C(=O)c2ccc(Cl)cc2)N2C(=O)C3CCCCC3C2=O)cc1 (stereo not drawn), the z-score was -0.588. Cc1ccc(C)n1-c1ccc(C(=O)NCC2CCCO2)cc1 (stereo not drawn) gave a z-score of -0.25. O=C(Nc1cccc(F)c1)c1cccnc1NCCc1ccccc1 was tested, and the z-score was -0.234. O=C(c1cccc(NS(=O)(=O)c2ccc(F)c(F)c2)c1)N1CCN(Cc2ccccc2)CC1 gave a z-score of -0.548. O=C(N=Nc1c(O)n(C2OC(=O)c3ccccc32)c2ccccc12)c1ccc(O)cc1 (stereo not drawn) gave a z-score of -0.332. For C=CCn1c(=O)c(C(=O)Nc2cccnc2)c(O)c2ccccc21, the z-score was 0.541. In the case of O=C(N/N=C/c1cc(Br)ccc1O)c1cccc(N2CCCC2=O)c1, the z-score was -0.268. For COc1cc2c(cc1NC(=O)CSc1ccccc1)oc1ccccc12, the z-score was -0.258. For O=C(COc1ccc(F)cc1)N(CC1=CCS(=O)(=O)C1)c1ccccc1, the z-score was 0.178. For CC(C)=CC(=O)Nc1nnc(C(C)C)s1, the z-score was -0.845. In the case of O=C(Oc1ccccc1)c1ccc2nsnc2c1, the z-score was 0.0931. COc1ccc(CCNC(=O)CSc2nnc(CNc3ccc(Cl)cc3)o2)cc1OC showed a z-score of -0.278. COc1ccc(Cl)cc1-c1nc(-c2ccc(NC(=O)c3ccncc3)cc2)no1 gave a z-score of 1.33. In the case of CC(CC(=O)Nc1cc(C(F)(F)F)ccc1Cl)c1ccccc1 (stereo not drawn), the z-score was 1.48. For CCOc1ccc(CN(C)C(C)C(=O)Nc2ccc([N+](=O)[O-])cc2Cl)cc1OC (stereo not drawn), the z-score was 0.0908. Compound Cc1ccc(-n2nc3ccc(NC(=O)/C=C/c4ccco4)cc3n2)cc1 has a z-score of -0.173. For COCCN(C(=O)Cc1cccs1)C(C(=O)NCc1ccc(OC)cc1)c1ccc(C)cc1 (stereo not drawn), the z-score was -0.364. In the case of COc1cc(/C=C/C(=O)O)cc(S(=O)(=O)NCCCO)c1OC, the z-score was -0.201. With CN1C(=O)c2ccccc2Sc2ccc(NC(=O)N3CCCC3)cc21 the z-score was -0.574. Compound Cc1cc(C)n2nc(SCn3nnc4ccccc4c3=O)nc2n1 has a z-score of -0.219. Compound C=CCOc1ccc(CNn2nnnc2N)cc1 has a z-score of 0.102. In the case of COCCn1c(SCC(=O)Nc2nnc(C)s2)nnc1-c1ccncc1, the z-score was -0.0183. O=C(CNC(=O)c1ccc(S(=O)(=O)N2CCCC2)cc1)N/N=C/c1ccc(Cl)cc1 was tested, and the z-score was -0.335.
